Here are results for 98 variants from a collection of fitness landscapes (doi:10.1016/j.celrep.2020.107928).

B1: Caulobacter ParB omega fusion; a variant is named by its letters at X, in order, B8GW30 (parent)
chain: MESVVVGEPGMSEGRRGLGRGLSALLGEVDAAPAQAPGEQLGGSREAPIEILQRNPDQPRRTFREEDLEDLSNSIREKGVLQPILVRPSPDTAGEYQIVAGERAWRAAQRAGLKTVPIMVRELDDLAVLEIGIIENVQRADLNVLEEALSYKVLMEKFERTQENIAQTIGKSXSHVANXMRLLXLPDEVQSYLVSGELTAXHARAIAAAADPVALAKQIIEGGLSVRETEALARKAPNLSAGKSKGGRPPRVKDTDTQALESDLSSVLGLDVSIDHRGSTGTLTITYATLEQLDDLCNRLTRGI

The full ranking holds about 81,000 sequences; the median of “one-hybrid fitness for binding parS DNA” is about -0.17, and the highest 2% start at about 0.51. This is one part of the list.

The variants in this test derive from B1. As to the kind of experiment: one-hybrid fitness for binding parS DNA (scaled: cognate 1, non-cognate 0); higher = stronger binding. Particulars: with parS DNA site. In outline:
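Pre- and post-selection plasmids were Illumina-sequenced, three replicate libraries were pooled, and any variant with under 10 reads was removed. The libraries were Caulobacter ParB with four specificity codons randomised, selected in E. coli USO through a HIS3 reporter whose site is 19 bp from the promoter. Cells grew 48 hours at 37°C on M9 without histidine, with 0.1 mM IPTG and 5 mM 3-AT. Fitness is the log change in variant-to-wild-type read ratio, rescaled against cognate and non-cognate.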
Consider LRSI, for which the “one-hybrid fitness for binding parS DNA” value was no more than 0.2.
As for PPVW, the “one-hybrid fitness for binding parS DNA” value is no more than 0.2.
MLHS: the “one-hybrid fitness for binding parS DNA” value is no more than 0.2.
Consider DPTK, for which the “one-hybrid fitness for binding parS DNA” value is no more than 0.2.
With MTVF, the “one-hybrid fitness for binding parS DNA” value is no more than 0.2.
Consider WRCG, for which the “one-hybrid fitness for binding parS DNA” value is no more than 0.2.
In the case of RGMI, the “one-hybrid fitness for binding parS DNA” value was no more than 0.2.
Take WTFC: the “one-hybrid fitness for binding parS DNA” value was no more than 0.2.
For LMTN, the “one-hybrid fitness for binding parS DNA” value is no more than 0.2.
Then YMMT, with no more than 0.2.
As for AEDF, the “one-hybrid fitness for binding parS DNA” value is no more than 0.2.
Take NKVT: the “one-hybrid fitness for binding parS DNA” value is no more than 0.2.
Next, QQSW: no more than 0.2.
Turning to VKHG, the “one-hybrid fitness for binding parS DNA” value was no more than 0.2.
As for LVCT, the “one-hybrid fitness for binding parS DNA” value was no more than 0.2.
Regarding PDLA, the “one-hybrid fitness for binding parS DNA” value was no more than 0.2.
DGYG: the “one-hybrid fitness for binding parS DNA” value was no more than 0.2.
Consider DEDG, for which the “one-hybrid fitness for binding parS DNA” value is no more than 0.2.
Turning to GNIV, the “one-hybrid fitness for binding parS DNA” value was no more than 0.2.
Take AMFC: the “one-hybrid fitness for binding parS DNA” value was no more than 0.2.
For the variant LYHF, the “one-hybrid fitness for binding parS DNA” value was no more than 0.2.
With ANPD, the “one-hybrid fitness for binding parS DNA” value was no more than 0.2.
As for RDVI, the “one-hybrid fitness for binding parS DNA” value was no more than 0.2.
For HMSI, the “one-hybrid fitness for binding parS DNA” value is no more than 0.2.
As to PDQS, the “one-hybrid fitness for binding parS DNA” value was no more than 0.2.
Consider PNNA, for which the “one-hybrid fitness for binding parS DNA” value was no more than 0.2.
With FYPT, the “one-hybrid fitness for binding parS DNA” value was no more than 0.2.
Next, SIVA: no more than 0.2; QFYG: no more than 0.2; SLTT: no more than 0.2.
Turning to HSMW, the “one-hybrid fitness for binding parS DNA” value is no more than 0.2.
In the case of NRGT, the “one-hybrid fitness for binding parS DNA” value is no more than 0.2.
In the case of STSK, the “one-hybrid fitness for binding parS DNA” value was no more than 0.2.
For the variant ELNC, the “one-hybrid fitness for binding parS DNA” value was no more than 0.2.
Consider TSRK, for which the “one-hybrid fitness for binding parS DNA” value is no more than 0.2.
Regarding DLHT, the “one-hybrid fitness for binding parS DNA” value was no more than 0.2.
Then SRSI, with no more than 0.2.
As for YTES, the “one-hybrid fitness for binding parS DNA” value was no more than 0.2.
Regarding VCHC, the “one-hybrid fitness for binding parS DNA” value is no more than 0.2.
On to INSL, for which the “one-hybrid fitness for binding parS DNA” value is no more than 0.2.
VDVI: the “one-hybrid fitness for binding parS DNA” value is no more than 0.2.
Turning to LDER, the “one-hybrid fitness for binding parS DNA” value was no more than 0.2.
For the variant LSDT, the “one-hybrid fitness for binding parS DNA” value is no more than 0.2.
For NRGK, the “one-hybrid fitness for binding parS DNA” value was no more than 0.2.
For the variant CALC, the “one-hybrid fitness for binding parS DNA” value is no more than 0.2.
QKAK: the “one-hybrid fitness for binding parS DNA” value is no more than 0.2.
For the variant VGSR, the “one-hybrid fitness for binding parS DNA” value is no more than 0.2.
Consider TDGS, for which the “one-hybrid fitness for binding parS DNA” value is no more than 0.2.
Then VLRF, with no more than 0.2; and RPLI, with no more than 0.2.
DMRT: the “one-hybrid fitness for binding parS DNA” value was no more than 0.2.
Turning to KKAD, the “one-hybrid fitness for binding parS DNA” value is no more than 0.2.
For QWKM, the “one-hybrid fitness for binding parS DNA” value is no more than 0.2.
Next, VKAL: no more than 0.2; PQLM: no more than 0.2.
For QMYV, the “one-hybrid fitness for binding parS DNA” value was no more than 0.2.
Consider WGDL, for which the “one-hybrid fitness for binding parS DNA” value is no more than 0.2.
Then VLLC, with no more than 0.2; and LVCW, with no more than 0.2.
In the case of TKPA, the “one-hybrid fitness for binding parS DNA” value is no more than 0.2.
ESVS: the “one-hybrid fitness for binding parS DNA” value was no more than 0.2.
For the variant FTGS, the “one-hybrid fitness for binding parS DNA” value was no more than 0.2.
For GMVE, the “one-hybrid fitness for binding parS DNA” value was no more than 0.2.
Turning to ARAL, the “one-hybrid fitness for binding parS DNA” value was no more than 0.2.
Next, MESM: no more than 0.2; RIYE: no more than 0.2.
Consider RGTP, for which the “one-hybrid fitness for binding parS DNA” value was no more than 0.2.
Next, YVMS: no more than 0.2.
NCNA: the “one-hybrid fitness for binding parS DNA” value is no more than 0.2.
Consider RIKG, for which the “one-hybrid fitness for binding parS DNA” value amounted to 0.959.
As for IHLG, the “one-hybrid fitness for binding parS DNA” value was no more than 0.2.
As for WQKS, the “one-hybrid fitness for binding parS DNA” value is no more than 0.2.
Next, ETRY: no more than 0.2; DLPI: no more than 0.2.
Regarding QVYP, the “one-hybrid fitness for binding parS DNA” value was no more than 0.2.
VGQT: the “one-hybrid fitness for binding parS DNA” value was no more than 0.2.
Consider HHNS, for which the “one-hybrid fitness for binding parS DNA” value was no more than 0.2.
Next, VTRY: no more than 0.2; HPPM: no more than 0.2; RAMY: 0.435.
With EINS, the “one-hybrid fitness for binding parS DNA” value was no more than 0.2.
Regarding WGKV, the “one-hybrid fitness for binding parS DNA” value was no more than 0.2.
Turning to CITC, the “one-hybrid fitness for binding parS DNA” value was no more than 0.2.
On to RMGK, for which the “one-hybrid fitness for binding parS DNA” value was no more than 0.2.
For the variant SCMM, the “one-hybrid fitness for binding parS DNA” value is no more than 0.2.
On to CEPR, for which the “one-hybrid fitness for binding parS DNA” value was no more than 0.2.
Then QCIE, with no more than 0.2.
Then QIYI, with no more than 0.2; and TVHP, with no more than 0.2.
Regarding KQES, the “one-hybrid fitness for binding parS DNA” value was no more than 0.2.
Next, MADI: no more than 0.2.
As to RHQL, the “one-hybrid fitness for binding parS DNA” value was no more than 0.2.
With YRTE, the “one-hybrid fitness for binding parS DNA” value was no more than 0.2.
As to WPVQ, the “one-hybrid fitness for binding parS DNA” value is no more than 0.2.
Regarding LQVD, the “one-hybrid fitness for binding parS DNA” value is no more than 0.2.
GDRW: the “one-hybrid fitness for binding parS DNA” value was no more than 0.2.
On to NATG, for which the “one-hybrid fitness for binding parS DNA” value is no more than 0.2.
In the case of CIPC, the “one-hybrid fitness for binding parS DNA” value is no more than 0.2.
